Data: the RNAGym collection of RNA variant scans (doi:10.7554/elife.90254)
The source gives no read counts; variants with many changes may rest on few reads.

B1: LINE1-full (parent)
chain: UACGUAGGUGGUUUUCCCCUGAUAGUGCUAAGGGGGCCUGGAAGUUUGGACUGGGCAGAGCUCAACACAGCGUGGCAAAGUGGCUGUGGCUAGACUGCCUCUCUGGAUUCCUCGUCACUCAGCAGGGCAUCUCUGAGAGAAAUGCC

Variants of: B1
Assay: self-cleavage, relative activity (ratio to wild type); higher = more cleavage; in vitro, sequencing; the parent is a self-cleaving ribozyme

Variant | self-cleavage
U23A U81C U112C A141G | 2.8
U14C U23C U91C A136U | 1.23
A77G U104A A129U | 2.22
C38U C71A U119C G137U | 0.45
U20C U26A A77C U96A U143A | 0.08
G74A U85A U143C | 0.04
U20C A24G U108C | 2.76
U20A A77U U134C | 0.92
G27U U45C A64C G106U A141G | 0.17
U5C U100A A107G | 0
U85C A124G A129U | 0.21
U14C A64U A69U U87C G114A | 0.05
A50U A59G A69G U112C | 0
U13A U14C U26C U115C | 0
U91G G125U U132C A142G | 0
U23C U29C A140G | 0.27
U12C A22G U47A A140U A142G | 1.01
A22G G36A U87C U109C U132A A138G U143C | 0
U46A U52C A78G U85A U132A | 0.04
U14C G75U U96C C111U U130C | 0.08
U13C C61U A64G | 0.08
A64U U112C C113A | 0.09
U13C U29C G114A U115C A142U | 1.37
U26A U46C G89A U115C A117G | 0

Variant | self-cleavage
U12C U46C A59G G86A | 0.12
G49U A59G U115C A140G | 0.07
U9A U62C U73A | 0.03
U15C U20C U29G A65G A69U | 0.84
U12C U46A A129U | 1.91
U15C G97A A138U | 0.08
U5A U9C U39A A43G U47A | 0.37
U20C G40U A50U U134A A140G | 0.22
A57G A64U G126C | 0.31
U39A A79U U85A | 0.08
G54U A57G A65U A79G G126A | 0
U15C G40U A65G C146U | 0
U15A C68U A77U | 0.07
C38A U46C A136G | 1.22
C16U U20C A121C | 1.36
A43G A124G A142U | 0.82
U5C A92G A117U | 0.1
U91A C99U A142G | 0.26
G36A G58A A94G U115G | 0.04
U13G U39C A141G | 0
U1C G72A A140G | 0.67
C71U U85A A142G | 0.06
A22G C28U G55U A77G | 0.37
C56U C98U U100G | 0.05

Variant | self-cleavage
U1C U15C U47C C63U U102C C113U | 0.18
A43G U52A A92G U104G U143C | 0
A6G C17U A136U | 1.2
G7U U14A U91C A107G | 1.31
U52C A64U U112C A142G | 0.36
U46C U52A U104C | 1.61
C17U A78G G139A | 1.07
A79G C131U G144U | 1.31
U14C U134C G135A | 1.27
U14A U45C U87C | 0.16
A69G U81C A94U | 0.34
U14C G27A U115C | 1.42
U26C A43U G55U A64C U73A A138G | 0.05
C17U A24G U91C A136G | 1.15
A64G A94U U132G | 0
A6G U23C A24G U143C | 0
A6G A22G U100C | 0.89
U12C U45A U46A A64G A77U | 0.19
U12C U102C U119C A124U A142G | 2.87
C17A A50G A57G U143A | 0.77
U62A U73A G74A A140G | 0.1
U1A U14C A107G U132C A141G | 1.02
A64G U96C U104C | 0
U20A U62C A141G | 0

Variant | self-cleavage
A30G A50G C113A A129U | 1.41
U13C U15C A79U | 2.32
U46A A79U U85C U108C | 0.12
U12G U15A A64G U109A A136C A142G | 0.26
U12C A31G G32A U73A A142G | 1.87
U46A U81A U130C | 2.14
U15C A69G A92G | 0
U26C A43G G127A | 0.91
U14C A92G U102C A121C | 0.28
U26C G32A A50G U108C | 1.27
U13C U96C A121U | 0.2
C3U U9C A50G | 0.5
U23G U46C U52A U108A A136G A138G | 1.93
C99G A140U A142G | 0.61
A24U A30G U100A | 1.01
U9C U26A A59G A107G | 0.13
C3U U52A A69U | 0.12
A30U U47C G97A U112A | 0.34
G4U A22G U26C U62C U115A A136G | 0.38
A42G G88U A107G A117G | 0.1
U85A U115A A117G | 0.06
A69G A129U U132A A142G | 0
A30G A42G U47A A121G | 1.49
A57G A79G G125A | 0.46

Variant | self-cleavage
U23C A42U A94G U102C | 0
U29C U46A A57G U109A | 0
A30U U52C A94C U130C A142G | 0
A31U A42G U96C | 0.14
U13C U119C U143C | 1.38
A50G C103A A141G | 0.92
U12C U13C U52C A65G | 0
A6G A69U U104C | 0.16
U47C A78U U104A A129G | 2.09
C3U U12C A30G A121G A136G | 1.97
U12C U26C A57U | 0.32
U14C G21U G34U A64G A140U | 0.46
C38A A50G A69U U91C U134C | 0.03
U15C A43G A94G C113U A117G | 0
A67G G72A A79U U100A | 0.34
A6G U14C U96A | 0.07
U12G C38A U81G | 0.92
U14C U96C U130G U132A | 0.2
A31C U62C U87A | 0.06
U29C G127A A136C | 1.65
U96A A124C U132C | 0.11
U14A A30G A117C G144A | 1.15
U39C A64U A77U A117U | 0.08
U5C U14C U23C | 1.21

Variant | self-cleavage
U1C A65U U73C U85A | 0
A59G A79C A138G | 0
G10A A31U G55U U109C | 0.13
U12G A79G A121G A124U | 2.45
U1C U14C A92U U109C A140U | 0.3
A42G A65U U104A A124U | 0.05
U14A C90A U119A | 0.02
U13C U52A A67G | 0
A43G A65G A129G U132C A140U | 0
A42G U130C U132C A136G | 0.77
U87C C90U A94G | 0.03
G33U A67G U112A U115C | 0.27
C3U G35U A142G | 0.64
U100A A138G U143C | 0.96
A2U U13C U20C U115C U134C | 0
A42G U81C U119C | 0.57
U14A A22G U39A C116U | 0.53
C3A A77G C110U A129C | 2.02
G58A U87A C145U | 0.05
U14C C37U U109A C113U A142G | 0.89
U9C A50U A78G | 0.97
A30G A107G A124U A138G U143C | 2.04
U20A U47A A78G U96A | 0.03
U12C C16U A67U A94U | 0.22

Variant | self-cleavage
G58U U100A A129G | 0.04
C3A U13C U143C | 0.66
A31U U46C A57U A65G U73A A79G A138G | 0
A43G A79G U143A | 2.51
G36C U62C G88A U132C | 0.03
U23C A57U U96A A140G | 0.5
A24G U109G A142G | 1.58
A43G U52C A78G | 0.9
A43U A59G U102C A124G | 0
U20C U96C A121C | 0
U39A C56U A69U U96C A140G | 0.12
U12G G34U U96C U100A G139A | 0.54
U5C A94U A117U | 0.14
A31G A64U A94G | 0.18
A67U U81C U104A | 0.08
U26C C38A U39C U46A A77G | 1.56
U15C G58A U85C G93A A129U | 0.03
G34A A142G U143C | 1.84
A57U C71U A121G | 0.05
U26A A77C G122U | 0.86
U5C U62C A78G | 0.37
G72A U100C U108C | 2.27
A22C U46A U132C A138G | 0.74
